According to the supplement of paper PMC7266297:
The other results are listed elsewhere or left out. Repeats are few or missing, and single values can be far off.

Key:
KB-3-1 = assay: growth inhibition relative to DMSO control (SRB); cervical cancer cells: KB-3-1 is the parent and KB-V1 overexpresses MDR1; SRB is the sulforhodamine B stain; higher = more growth inhibition; conditions: 1 µM; 72 h
KB-V1 = assay: as above; conditions: 1 µM; 72 h
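Note: Read-out is SRB optical density at 490 nm, with the control being wells given 0.5% DMSO vehicle, and compound added one day after cells were plated.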

Q: Which results are given for COc1ccc(S(=O)(=O)N(C(C)=O)c2ccccc2/C=C/c2cc[n+]([O-])cc2)cc1?
A: growth inhibition (KB-3-1): 97.4%; growth inhibition (KB-V1): 73%

Q: Which results are given for CC(=O)c1c(C)c2cnc(Nc3ccc(N4CCNCC4)cn3)nc2n(C2CCCC2)c1=O?
A: growth inhibition (KB-3-1): 34.9%; growth inhibition (KB-V1): 48.2%

Q: Which growth inhibition (KB-3-1) does the source give for CCCCC(=O)O[C@H]1CC[C@H]2[C@@H]3CCc4cc(O)ccc4[C@H]3CC[C@]12C [Estradiol valerate] here?
A: < 0%

Q: And the growth inhibition (KB-V1)?
A: < 0%

Q: How did the growth inhibition (KB-3-1) turn out when O=C(NCCO[N+](=O)[O-])c1cccnc1 [Nicorandil] was run?
A: 48.5%

Q: And the growth inhibition (KB-V1)?
A: 26.1%

Q: Cc1cc(F)c(Nc2ncnc3cc(OCc4ccccc4)ccc23)cc1O was tested. Which growth inhibition (KB-3-1) did it give?
A: 13.5%

Q: What about the growth inhibition (KB-V1) of the same compound?
A: < 0%
